In one experiment the test system is HSkMC. Kind of experiment: cytotoxicity call (relative viability < 0.9). The following applies: 10 µM.
The test system of another experiment is HepG2. Description: cytotoxicity call (relative viability < 0.9). To be noted: 10 µM.
A further experiment concerns S. aureus RN4220. Kind of experiment: growth inhibition call (relative growth <= 0.2). To be noted: 50 µM.

This is one part of the list.

For `COc1ccc(C#Cc2ccc3c(c2)[C@]2(C(=O)N3)[C@H](c3ccccc3OCCO)N3[C@H](c4ccccc4)[C@H](c4ccccc4)OC(=O)[C@H]3[C@@H]2C(=O)O)cc1`, the cytotoxicity call in the experiment on HSkMC and with HepG2 was “inactive” each time. Further, in the experiment with S. aureus RN4220, the growth inhibition call was “inactive”.
With `C/C=C/c1ccc2c(c1)O[C@H](CN(C)Cc1ccc(C(=O)O)cc1)[C@H](C)CN([C@H](C)CO)S2(=O)=O`, the cytotoxicity call in the experiment on HSkMC and with HepG2 was “inactive” throughout. Moreover, the growth inhibition call in the experiment on S. aureus RN4220 was “inactive”.
In the case of `C[C@@H]1CN([C@H](C)CO)C(=O)c2cc(NS(=O)(=O)c3ccccc3)ccc2O[C@@H]1CN(C)Cc1ccc(Cl)c(Cl)c1`, in the experiment on HSkMC, the cytotoxicity call was “inactive”. Also, the cytotoxicity call in the experiment with HepG2 is “active”. Also, in the experiment with S. aureus RN4220, the growth inhibition call is “inactive”.
With `C[C@@H]1CN([C@H](C)CO)C(=O)CCCn2nncc2CO[C@@H]1CN(C)S(=O)(=O)c1ccc(C#N)cc1`, the cytotoxicity call with HSkMC and in the experiment with HepG2 was “inactive” in each case. Also, the growth inhibition call in the experiment with S. aureus RN4220 is “inactive”.
Regarding `COc1cccc(S(=O)(=O)N[C@@H]2CC[C@@H](CC(=O)NC3CCC3)O[C@H]2CO)c1`, the cytotoxicity call in the experiment with HSkMC and in the experiment with HepG2 was “inactive” in each case. Besides, the growth inhibition call with S. aureus RN4220 was “inactive”.
As to `C[C@@H]1CN([C@H](C)CO)C(=O)c2cc(NC(=O)C3CCCCC3)ccc2O[C@@H](C)CCCCO[C@H]1CN(C)C(=O)c1ccccc1`, the cytotoxicity call in the experiment on HSkMC and in the experiment with HepG2 was “inactive” each time. The growth inhibition call in the experiment on S. aureus RN4220 was “inactive”.
On to `O[C@H]1[C@H](O)[C@@H](O)[C@H](O)[C@H](O)[C@H]1O`, for which the cytotoxicity call in the experiment on HSkMC and with HepG2 was “inactive” each time. Moreover, the growth inhibition call in the experiment with S. aureus RN4220 was “inactive”.
As to `COc1ccc(S(=O)(=O)Nc2ccc3c(c2)C(=O)N([C@H](C)CO)C[C@@H](C)[C@H](CN(C)Cc2ccc4c(c2)OCO4)OCCCC[C@@H](C)O3)cc1`, the cytotoxicity call in the experiment on HSkMC and in the experiment on HepG2 was “inactive” throughout. In addition, the growth inhibition call in the experiment on S. aureus RN4220 was “inactive”.
Take `O=C(O)[C@H]1C[C@@H]2C[C@H]1CC[C@@H]2O`: the cytotoxicity call in the experiment with HSkMC and in the experiment with HepG2 was “inactive” each time. Also, the growth inhibition call with S. aureus RN4220 was “inactive”.
For the compound `COc1cc2c(cc1OC)CN(C[C@H]1C[C@H](c3ccccc3)O[C@H](c3ccc(NC(=O)CCCCCCC(=O)NO)cc3)O1)CC2`, the cytotoxicity call in the experiment with HSkMC and in the experiment with HepG2 was “active” each time. Moreover, in the experiment with S. aureus RN4220, the growth inhibition call is “inactive”.
Consider `CCS(=O)(=O)N1CC[C@]2(CC1)CN([C@H](CO)c1c2c2ccc(cc2n1C)OC)C(=O)Nc1c(noc1C)C`, for which the cytotoxicity call in the experiment on HSkMC and in the experiment with HepG2 was “inactive” in each case. Also, the growth inhibition call in the experiment on S. aureus RN4220 is “inactive”.
Turning to `CN(C)CCCNC(=O)C[C@@H]1CC[C@@H]2[C@H](COC[C@@H](O)CN2S(=O)(=O)c2ccccc2)O1`, the cytotoxicity call in the experiment with HSkMC and in the experiment with HepG2 was “inactive” throughout. Besides, the growth inhibition call in the experiment with S. aureus RN4220 was “inactive”.
On to `Cc1noc(C)c1S(=O)(=O)N(C)C[C@H]1Oc2ccc(NC(=O)CCCN(C)C)cc2C(=O)N([C@H](C)CO)C[C@H]1C`, for which the cytotoxicity call in the experiment on HSkMC and in the experiment with HepG2 was “inactive” each time. Besides, the growth inhibition call in the experiment on S. aureus RN4220 is “inactive”.
For `C[C@@H]1CN([C@H](C)CO)C(=O)c2cccc(NC(=O)Nc3cccc4ccccc34)c2O[C@@H]1CN(C)Cc1ccc(C(F)(F)F)cc1`, the cytotoxicity call in the experiment on HSkMC and in the experiment with HepG2 was “inactive” in each case. Further, the growth inhibition call in the experiment with S. aureus RN4220 was “inactive”.
For the compound `C[C@H]1CCCCO[C@@H](CN(C)Cc2ccc(C(F)(F)F)cc2)[C@@H](C)CN([C@@H](C)CO)C(=O)c2cc(N(C)C)ccc2O1`, the cytotoxicity call in the experiment on HSkMC and in the experiment with HepG2 was “inactive” throughout. Further, the growth inhibition call in the experiment on S. aureus RN4220 was “inactive”.
For the compound `CC(C)CC#Cc1ccc2c(c1)O[C@H](CN(C)S(=O)(=O)c1ccc(F)cc1)[C@@H](C)CN([C@H](C)CO)S2(=O)=O`, the cytotoxicity call in the experiment with HSkMC and in the experiment with HepG2 was “inactive” in each case. Also, the growth inhibition call in the experiment with S. aureus RN4220 was “inactive”.
Regarding `COc1ccc(NC(=O)Nc2ccc3c(c2)C(=O)N([C@@H](C)CO)C[C@H](C)[C@@H](CN(C)S(=O)(=O)c2ccc(OC)cc2)OCCCC[C@@H](C)O3)cc1`, the cytotoxicity call in the experiment with HSkMC and in the experiment on HepG2 was “inactive” throughout. Besides, in the experiment on S. aureus RN4220, the growth inhibition call is “inactive”.
As for `C[C@@H]1CN([C@H](C)CO)C(=O)c2cccc(NS(=O)(=O)c3cccs3)c2O[C@@H]1CN(C)C(=O)Nc1cccc2ccccc12`, the cytotoxicity call with HSkMC and in the experiment with HepG2 was “inactive” in each case. The growth inhibition call in the experiment on S. aureus RN4220 was “inactive”.
For `CC(C)[C@@H]1COCc2cnnn2CCC[C@H](C)C(=O)N[C@H](C(C)C)COCc2cnnn2CCC[C@H](C)C(=O)N1`, the cytotoxicity call with HSkMC and in the experiment on HepG2 was “inactive” each time. The growth inhibition call with S. aureus RN4220 was “inactive”.
As for `CNCC(O)C(O)C(O)C(O)CO.Cc1c(Nc2ncccc2C(=O)O)cccc1C(F)(F)F`, the cytotoxicity call in the experiment on HSkMC and in the experiment with HepG2 was “inactive” each time. Also, in the experiment with S. aureus RN4220, the growth inhibition call was “inactive”.
On to `COc1ccc(S(=O)(=O)N(C)C[C@@H]2OCCCC[C@@H](C)Oc3ccc(NC(=O)CCC(F)(F)F)cc3C(=O)N([C@@H](C)CO)C[C@H]2C)cc1`, for which the cytotoxicity call in the experiment on HSkMC and in the experiment with HepG2 was “inactive” each time. Further, the growth inhibition call with S. aureus RN4220 was “inactive”.
For `C[C@H](CO)N1C[C@H](C)[C@H](CN(C)Cc2ccc(Oc3ccccc3)cc2)Oc2ccc(NC(=O)C3CCCCC3)cc2CC1=O`, the cytotoxicity call in the experiment on HSkMC is “inactive”. For the same compound, the cytotoxicity call in the experiment on HepG2 is “active”. The growth inhibition call with S. aureus RN4220 is “inactive”.
With `C=CC[C@@H](CC(=O)N(CCO)Cc1ccccc1)C(=O)N[C@H](COC(=O)[C@@H](CC=C)Cc1ccc(F)cc1)Cc1c[nH]c2ccccc12`, the cytotoxicity call with HSkMC and with HepG2 was “active” each time. Besides, the growth inhibition call in the experiment with S. aureus RN4220 was “inactive”.
With `COc1oc(C(=O)NC2CCCCC2)c(-c2ccc(Cl)cc2)c1S(=O)(=O)c1ccc(C(F)(F)F)cc1[N+](=O)[O-]`, the cytotoxicity call with HSkMC and in the experiment with HepG2 was “inactive” each time. Besides, the growth inhibition call in the experiment on S. aureus RN4220 is “inactive”.
On to `COc1ccc(S(=O)(=O)N(C)C[C@H]2OCCCC[C@@H](C)Oc3ccc(NS(C)(=O)=O)cc3C(=O)N([C@H](C)CO)C[C@@H]2C)cc1`, for which the cytotoxicity call with HSkMC and with HepG2 was “inactive” in each case. Besides, the growth inhibition call in the experiment on S. aureus RN4220 was “inactive”.
For the compound `Cc1noc(C)c1S(=O)(=O)Nc1ccc2c(c1)C(=O)N([C@@H](C)CO)C[C@@H](C)[C@H](CN(C)Cc1ccc3c(c1)OCO3)O2`, the cytotoxicity call in the experiment on HSkMC (human skeletal muscle cells) and in the experiment on HepG2 was “inactive” throughout. In addition, the growth inhibition call in the experiment with S. aureus RN4220 was “inactive”.
